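Cells were grown in 96-well plates and exposed to each compound for 48 hours at five concentrations; endpoints were interpolated linearly between bracketing concentrations, or set to the highest concentration if not reached. The concentration for 50% growth inhibition is given as GI50.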 Activity calls are given as the source filed them. Rule as the data show it: active = GI50 up to about 1.1 µM and inactive = higher. Bounds are passed on as bounds.

In this assay the test system is NCI-H322M. The experiment in a line: NCI tumour cell line growth inhibition, 48 h.
On to `COC(=O)c1c(C#N)c(N)nc2c1CCC2`, for which the GI50 was inactive: > 100 µM.
With `CCN(CC)CCC(=O)N1C/C(=C/c2ccccc2)C(=O)/C(=C\c2ccccc2)C1`, the GI50 is inactive: 4.54 µM.
To `NC12CCC(CC1=O)C2` (configuration not stated) belongs inactive: > 100 µM.
The same measure for `COC(=O)C1(C)CCc2c(OC)ccc(OC)c2C1=O` (configuration not stated): inactive: > 100 µM; for `COc1cc(/C=N/N=C(\N)NO)cc(OC)c1OC`: inactive: 17.4 µM.
As for `O=[N+]([O-])C(C(Cl)=C(Cl)Cl)=C(n1nnc2ccccc21)n1nnc2ccccc21`, the GI50 was inactive: > 56.4 µM.
For the compound `Fc1c(F)c(F)c2c(c1F)CSc1nc3ccccc3n1-2`, the GI50 is inactive: > 100 µM.
The same measure for `CCOC(=O)N1CCN(P(=O)(Nc2ccc3[nH]c(NC(=O)OC)nc3c2)Oc2ccccc2)CC1` (configuration not stated): inactive: > 100 µM; for `COc1ccc(C(C#N)NNC(=O)c2ccccc2O)cc1OC` (configuration not stated): inactive: 4.31 µM.
With `N#CC1(O)CCCCCCCCCCC1`, the GI50 is inactive: > 100 µM.
`C/C(=N\NC(=S)N1CCN(C2CCCCCC2)CC1)c1ccccn1`: the GI50 is active: 0.01 µM.
Turning to `O=[N+]([O-])c1cc(C2(N3CCCCC3)CCCCC2)sc1Br`, the GI50 was inactive: 12.7 µM.
To `Clc1ccc(C2=Nc3ccccc3SC(c3cccs3)C2)cc1` (configuration not stated) belongs inactive: 15.3 µM; to `O=c1cc(N2CCCC2)[nH]c(=O)n1-c1ccc(F)cc1`, inactive: > 100 µM; to `Cc1nc(C(N)=S)sc1C(=O)C/C(=N/N)C(=O)Nc1cccc(Cl)c1C`, inactive: 97.7 µM.
Take `COc1ccc2c(c1)C(=O)Cc1ccccc1CC2`: the GI50 is inactive: > 100 µM.
Take `Cc1cc(C)c(C2=NOC(c3ccccc3)(c3cc(=O)n(-c4ccccc4)s3)O2)c(C)c1` (configuration not stated): the GI50 is inactive: > 100 µM.
To `O=C1C2C=CC1C1C(=O)OC(=O)C21` (configuration not stated) belongs inactive: > 100 µM; to `COc1cccc(CC(C)NCC(O)c2ccc(O)c(O)c2)c1` (configuration not stated), inactive: 36.2 µM; to `COc1cc(O)c2c(=O)c3cccc(C)c3[nH]c2c1`, inactive: 6.53 µM.
To `COc1ccccc1/C=C(\C#N)C(=O)c1ccccc1` belongs inactive: > 100 µM.
In the case of `CCOC(=O)c1cnccc1CC1(C#N)c2ccccc2C=CN1C(=O)c1ccccc1` (configuration not stated), the GI50 was inactive: 45.5 µM.
To `COC(=O)C12C3C=CC(O3)C1C1C=CC2O1` (configuration not stated) belongs inactive: > 100 µM; to `Clc1ccc(CCN2CCOCC2)c(Cl)c1`, inactive: > 100 µM.
For `COC(=O)C1Cc2c(C)cccc2C1=O` (configuration not stated), the GI50 was inactive: > 100 µM.
Take `O=C(C1OC1c1ccc([N+](=O)[O-])cc1)C12CC3CC(CC(C3)C1)C2` (configuration not stated): the GI50 is inactive: 20.2 µM.
Turning to `COc1cccc(-c2nc3c(C(=O)NCCN(C)C)cccc3[nH]2)c1`, the GI50 is inactive: 9.18 µM.
Turning to `CC(=O)OC1CC2C(=O)CC1(C)C2(C)C` (configuration not stated), the GI50 was inactive: > 100 µM.
As to `Nc1nc(=O)c(/N=N/c2ccccc2)c(C(=O)O)[nH]1`, the GI50 is inactive: 45.2 µM.
To `COc1cc2ccc1OCc1cccc(n1)COc1ccc(cc1OC)/C=N\c1ccc(cc1)/N=C\2` belongs inactive: > 100 µM.
To `OC(CCNCc1ccccc1)c1ccc2ccccc2c1` (configuration not stated) belongs inactive: 23.4 µM; to `O=C(CCCc1cccc2[nH]c3c(c12)CN(Cc1ccccc1)CC3)c1ccc(F)cc1`, inactive: > 100 µM.
To `CC1=C(C)CC2(SC1)C(=O)c1ccccc1C2=O` belongs inactive: > 100 µM; to `CC1=CC(C)(C)[C@H]2O[C@@]3(O)C[C@]4(C)[C@H]5C[C@@](C(C)C)(O[C@H]4c4ccoc4)O[C@H]4[C@]5(C3)O[C@@]1(O)[C@]24O`, inactive: 68.7 µM; to `C=C1c2ccccc2Oc2nc3nc(N)c(C#N)c(N)c3c(N)c21`, inactive: 32.1 µM.
On to `O=c1c2cc(-c3ccccc3)cnc2sn1-c1ccc([N+](=O)[O-])cc1`, for which the GI50 was inactive: 31.8 µM.
The same measure for `CCCC(=O)N/S(=N/S(=O)(=O)c1ccc(Cl)cc1)C(Cl)(Cl)Cl` (configuration not stated): inactive: > 100 µM; for `O=C1CCC(=O)N1n1c(Cc2ccccc2)n[nH]c1=O`: inactive: > 100 µM.
The same measure for `CN(C)c1ccc(/C=C(\C#N)C(=O)c2ccccc2)cc1Br`: inactive: > 100 µM; for `N#C/C(C(=O)Nc1ccc(Cl)cc1)=C(/N)N1CCCCC1`: inactive: > 100 µM.
To `CCOC(=O)NC(=O)c1cn(C2CCCCC2)c(=O)[nH]c1=O` belongs inactive: > 100 µM.
Consider `N#CC(C(=O)C(=O)Nc1c(Cl)cccc1Cl)c1ccccc1` (configuration not stated), for which the GI50 is inactive: > 10 µM.
`COC(=O)C1=COC2OC3C(C(C)O)C(=O)OC34C=CC1C24` (configuration not stated): the GI50 was inactive: > 100 µM.
The same measure for `O=C1c2ccccc2CC12Cc1ccc3c(c1C2)CCC3` (configuration not stated): inactive: 20 µM.
Regarding `CCCC(=O)Nc1cc(/C=C/C(=O)N2CC(CCl)c3c2cc(O)c2[nH]cc(C)c32)n(C)c1` (configuration not stated), the GI50 was active: < 2.5e-05 µM.
For `Cc1ccn2c(c1)nc1nc3ccccc3nc12`, the GI50 was inactive: > 100 µM.
With `COC1C(O)C(C)OC(O[C@H]2CC[C@@]3(C)C(CC[C@@H]4[C@@H]3CC[C@]3(C)[C@@H](C(C)OC5OC(CO)C(O)C(O)C5O)CC[C@]43O)C2)C1O` (some centres not stated), the GI50 was inactive: > 25 µM.
For the compound `CSc1nc(=S)[nH]c2[nH]nc(C)c12`, the GI50 was inactive: > 100 µM.
To `CCSc1nc(N)c2c(-c3ccccc3)c3c(nc2n1)CCC3` belongs inactive: > 100 µM; to `O=c1ccn(CC2(CO)CCCC2)c(=O)[nH]1`, inactive: > 100 µM.
Regarding `O=c1oc2c/c(=C\c3ccccn3)c(=O)c3cccc1c3-2`, the GI50 was inactive: > 100 µM.
On to `C=C1C(=O)O[C@@H]2C[C@@H](C)[C@@H]3[C@@H](OC4OC(COC(C)=O)C(O)C(O)C4O)CC(=O)[C@@]3(C)C[C@H]12` (some centres not stated), for which the GI50 is inactive: 14.1 µM.
To `CCCCOP(=O)(OCCCC)/C(C#N)=C/c1ccco1` belongs inactive: > 100 µM; to `Nc1nc(Sc2ccc([N+](=O)[O-])cn2)c2nc[nH]c2n1`, inactive: 13.2 µM.
The same measure for `O=c1cc(NNc2ccccc2)[nH]c(=S)[nH]1`: inactive: > 100 µM; for `O=C1NC(=O)C(COCc2ccccc2)C2=C1SCCC2` (configuration not stated): inactive: > 100 µM; for `CC(NC(=O)c1ccc(OP(=O)(OCc2ccc([N+](=O)[O-])o2)N(C)CCCCCl)cc1)c1ccc(OCC2CCCCC2)c(C(N)=O)c1` (configuration not stated): inactive: 12.3 µM.
With `Cc1c(-c2ccccc2)[nH]n(C2=NCCN2)c1=O`, the GI50 was inactive: > 100 µM.
Consider `CCN(c1n[n+]2c(-c3ccccc3)csc2s1)c1n[n+]2c(-c3ccccc3)csc2s1`, for which the GI50 is inactive: > 100 µM.
To `O=C(/C=C/c1ccc(F)c(F)c1)OCCc1ccccc1` belongs inactive: > 100 µM; to `O=C(c1ccco1)N1CCN(C(=O)c2ccco2)C1=S`, inactive: 15.5 µM; to `Cc1ncc([N+](=O)[O-])n1CCN(C)C(=O)CCCn1ccnc1[N+](=O)[O-]`, inactive: > 100 µM.
